# In PubChem BioAssay AID2101 (National Center for Advancing Translational Sciences (NCATS), 2009):
# Out of some 330,000 compounds screened, about 300 (0.091%) were called active. This list was built around the results that the source calls inconclusive (neither active nor inactive); the mix of calls is not that of the screen. The call rests on the fitted dose curve; in most records, active means well fitted inhibition curve with a large enough effect; inconclusive means small, poorly fitted or top-dose-only effect, or effect the other way, or another doubt; inactive means no such curve, though single readings can be large or run the other way. Potencies of inconclusive entries are left out as doubtful fits.
# Biological target: Lysosomal acid glucosylceramidase (Homo sapiens) (UniProt P04062)
# Assay: qHTS Assay for Inhibitors and Activators of N370S glucocerebrosidase as a Potential Chaperone Treatment of Gaucher Disease;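 on activity change, negative = inhibition: 0% = full enzyme activity and -100% = no enzyme basal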
# Details: N370S GC spleen homogenate, 4MU-glucoside fluorescence; activity change, negative = inhibition: at 59.4 µM (top of the series) unless noted
# Potency means the concentration at half of the fitted maximal effect.
SMILES,"activity change, negative = inhibition",Potency
Cc1ccc(S(=O)(=O)CCC(=O)Nc2nc(-c3cccnc3)cs2)cc1,inactive: -6.21%,–
CON/C=C(\C=Nc1ccc(Cl)cc1)c1ncc(C(F)(F)F)cc1Cl,inconclusive: 25.5% [activator],–
CCc1ccc(-n2nc3cc(C)c(N)cc3n2)cc1,–,"inconclusive [activator, partial curve]"
COc1ccccc1N/C(N)=N/c1nc(C(F)(F)F)cc(=O)[nH]1,–,"inconclusive [inhibitor, partial curve]"
COc1ccccc1NS(=O)(=O)c1cc(NC(=O)c2ccncc2)ccc1N1CCOCC1,inactive: 27.4%,–
COc1cc(CNCCN2CCOCC2)ccc1OCc1ccc(Cl)cc1Cl,–,"inconclusive [inhibitor, partial curve, poor fit]"
O=S(=O)(Nc1ccc(-c2ccc(N3CCOCC3)nn2)cc1)c1cc(Cl)ccc1Cl,–,"inconclusive [inhibitor, partial curve]"
CCCCOc1ccc(NC(=O)CSc2cccc3cccnc23)cc1,–,"inconclusive [activator, partial curve]"
COCCN1CCN(C(=O)c2ccc3oc(CCCc4ccccc4)nc3c2)CC1,inactive: -7.37%,–
Cc1cccc(OCCNc2cc(N3CCN(C)CC3)ccc2[N+](=O)[O-])c1,–,"inconclusive [inhibitor, single point]"
CC(C)C[C@H](NC(=O)c1[nH]cnc1C(=O)Nc1ccc(Cl)cc1)C(=O)OC(C)(C)C,–,"inconclusive [activator, partial curve]"
CC(/C=N/n1c(C2CCCCC2)n[nH]c1=S)=C\c1ccccc1,–,"inconclusive [activator, single point]"
COc1ccc(C(C)NCCC(c2ccc(OC(C)C)cc2)c2ccccc2OC)cc1 (stereo not given),–,"inconclusive [inhibitor, single point]"
C=CCCCOc1ccc(C(=O)O)cc1,–,"inconclusive [activator, partial curve, poor fit]"
Cc1ccc(S(=O)(=O)CC(=O)c2ccc(C(C)(C)C)cc2)cc1,inactive: 4.47%,–
COc1ccc(CN(C)C(=O)CCl)cc1,inactive: 14.9%,–
Cc1ccc(C)c(-c2nnc(OCC(=O)Nc3cc(C)on3)c3ccccc23)c1,–,"inconclusive [inhibitor, partial curve]"
COCCCn1cnc2oc3nc4ccccc4nc3c2c1=O,–,"inconclusive [activator, partial curve]"
O=C(Cn1cc(/C=N/NC(=O)c2cccc(C(F)(F)F)c2)c2ccccc21)Nc1ccc(F)cc1,–,"inconclusive [inhibitor, single point]"
CC(=O)N1CN(Cc2ccccn2)Cc2c1sc1c2CCCC1,inactive: -3.64%,–
Nc1ncnc2c1nc(Br)n2C1O[C@H]2COP(=O)(O)O[C@@H]2C1O (stereo not given in full),inactive: 1.33%,–
COC(=O)CSc1nc(Cc2ccccc2)nc2ccccc12,–,"inconclusive [activator, single point]"

SMILES,"activity change, negative = inhibition",Potency
CC1Cc2ccccc2N1C(=O)CSc1nn2c(=O)c(C(C)(C)C)nnc2s1 (stereo not given),–,"inconclusive [activator, partial curve]"
O=c1[nH]c(C2CCN(S(=O)(=O)c3ccc(C(F)(F)F)cc3)CC2)nc2c1nnn2Cc1cccc(F)c1,–,"inconclusive [inhibitor, partial curve]"
Cc1cccc2cc(CN(Cc3cccs3)Cc3nnnn3Cc3ccccc3)c(=O)[nH]c12,–,"inconclusive [activator, single point]"
COc1cccc(Nc2nc(-c3ccccc3)nc3ccccc23)c1,–,"inconclusive [inhibitor, full curve]"
CCOC(=O)c1c(C)n(-c2ccc(C)cc2)c2ccc(OCC(O)CNCC3CCCO3)cc12 (stereo not given),–,"inconclusive [inhibitor, single point]"
O=C(CN1CCOCC1)N1CCc2ccccc2C(c2ccccc2)C1 (stereo not given),–,"inconclusive [inhibitor, single point]"
O=C(N1CCN(c2ccccn2)CC1)N1c2ccccc2Sc2ccccc21,–,"inconclusive [activator, partial curve]"
CCCn1cnc2c(c1=O)c1nc3ccccc3nc1n2Cc1ccccc1OC,–,"inconclusive [activator, full curve, poor fit]"
CCOc1ccc(C(=O)NCc2ccccc2)cc1Br,–,"inconclusive [activator, single point]"
CC(C)(C)[C@@H]1CCC(=O)N(CC[C@H](N=[N+]=[N-])c2ccccc2)CC1,–,"inconclusive [activator, single point]"
CCN(CC(=O)Nc1c(F)cccc1F)C(=O)C1CCN(S(=O)(=O)c2ccc(C)cc2C)CC1,–,"inconclusive [inhibitor, partial curve]"
Nc1nc(-c2ccccc2)c(N=Nc2ccccc2Cl)s1,–,active: 10 µM
COc1ccc(-c2nn(-c3ccccc3)cc2/C=N/Nc2ccccn2)cc1OC,–,"inconclusive [inhibitor, single point]"
C#Cc1ccc([C@H]2C=C(C(=O)Nc3ccccc3)O[C@@H](OCc3ccc(CO)cc3)C2)cc1,–,"inconclusive [activator, single point]"
O=C(c1ccc(Oc2ccc(C(F)(F)F)cn2)cc1)N1CCN(c2ccccc2)CC1,–,"inconclusive [inhibitor, single point]"
CN1CCN(c2nc(-c3ccc(Br)cc3)nnc2-c2ccccc2)CC1,–,"inconclusive [inhibitor, single point]"
O=C1CC(N2CCCCCC2)C(=O)N1c1ccc2c(c1)OCO2 (stereo not given),inactive: -2.51%,–
COc1ccc(S(=O)Cc2ccc(C(=O)NCc3cccc(OC)c3)o2)cc1 (stereo not given),–,"inconclusive [inhibitor, single point]"
COc1ccccc1C1CC(c2ccccc2)=NN1C(=O)c1ccccc1 (stereo not given),–,"inconclusive [activator, partial curve]"
Cc1ccc(Cl)cc1NC(=O)c1ccccc1OCC(=O)Nc1ccc(Cl)cc1,–,"inconclusive [activator, full curve]"
CC(C)(C)c1cc(CN2CCCCC2)cc(C(C)(C)C)c1O,–,"inconclusive [inhibitor, single point]"
COc1cccc(CNC(C)(C)CO)c1OCc1ccc(Cl)cc1,–,"inconclusive [inhibitor, full curve]"

SMILES,"activity change, negative = inhibition",Potency
Cc1cccc(Nc2nnc(SC/C(O)=C(\C#N)c3nc4ccccc4[nH]3)s2)c1C,–,"inconclusive [inhibitor, single point]"
CCOCN(C(=O)Cn1c(COC)nc2ccccc21)c1c(C)cccc1CC,–,"inconclusive [activator, partial curve]"
CNC(=S)N(Cc1ccc(OC)cc1)C1CC(=O)N(c2ccc(Cl)cc2)C1=O (stereo not given),–,"inconclusive [inhibitor, partial curve, poor fit]"
Cc1c(Cl)cccc1NC(=S)N(CCN(C)C)C(C)c1ccccn1 (stereo not given),–,"inconclusive [inhibitor, single point]"
Cc1cn2nc(N)c3ccccc3c2n1,inconclusive: 33.1% [activator],–
Cc1ccc(-c2nnc(N3CCC(C)CC3)c3ccccc23)cc1C,–,"inconclusive [activator, partial curve]"
NC(=O)C1=C[C@H](c2csc3ccccc23)C[C@H](OCc2ccc(CO)cc2)O1,inconclusive: 29.2% [activator],–
O=C(N/N=C/c1cc(Br)ccc1O)Nc1ccccc1,–,"inconclusive [activator, full curve, poor fit]"
Cc1cc(N=Cc2c(O)n(-c3cccc(C(F)(F)F)c3)c(=O)c3ccccc23)no1,inactive: -24.7%,–
CC(=O)c1ccc(OCCCN2CCCCC2)cc1,inactive: 0.35%,–
CCOc1ccc(C2C(C(=O)OC)=CN(CCOC)C=C2C(=O)OC)cc1,–,"inconclusive [activator, partial curve]"
CCC(C)NC(=O)c1cc2c(=O)n3ccccc3nc2s1 (stereo not given),–,"inconclusive [activator, partial curve]"
Nc1ccc(-c2nnc(-c3ccc(-c4ccccc4)cc3)o2)cc1,–,"inconclusive [activator, partial curve, poor fit]"
COc1ccc(NC(=S)N(CCCN2CCOCC2)Cc2cn(C)c3ccccc23)cc1,inactive: 0.429%,–
CN(CCOc1ccc(Cl)cc1)c1ccc(S(=O)(=O)N2CCCCC2)cn1,–,"inconclusive [activator, partial curve, poor fit]"
COc1ccc(CNc2nc(-c3ccc4c(c3)OCO4)nc3ccccc23)c(OC)c1,–,"inconclusive [inhibitor, single point]"
Cc1cccc(N2C(=O)CC(Sc3nnc(C)s3)C2=O)c1 (stereo not given),inactive: -10.3%,–
CC1CC(C)CN(C(=O)COC(=O)/C=C/c2cccc([N+](=O)[O-])c2)C1 (stereo not given),inactive: -6.93%,–
COc1ccc(C2c3ccc4ccccc4c3Oc3ncn(CCN4CCOCC4)c(=N)c32)cc1OC (stereo not given),–,"inconclusive [inhibitor, full curve, poor fit]"
Cc1cc2[nH]c(=O)c(=O)[nH]c2cc1S(=O)(=O)NCc1ccc(Cl)cc1,–,"inconclusive [inhibitor, partial curve]"
OC(COC(c1ccc(F)cc1)c1ccc(F)cc1)CN1CCCC1 (stereo not given),–,"inconclusive [inhibitor, partial curve]"
